Sequences and labels used below:
B1: GAAGGUU (DNA:RNA)
RNA: GGGAGACCGGAAUUCAGAUUGUCCGAAGGUUUUAAAUCCCGUCGUAGCCACCA
DNA 1: CAATCTGAATTCCGGTCTCCC
DNA 2: TGGTGGCTACGACGGGATT
B2: UUGACUA (DNA:RNA)
RNA: B1 RNA with G25U, A26U, A27G, G28A, G29C, U31A
DNA 1: CAATCTGAATTCCGGTCTCCC
DNA 2: TGGTGGCTACGACGGGATT
B3: GCAAAAU (DNA:RNA)
RNA: B1 RNA with A26C, G28A, G29A, U30A
DNA 1: CAATCTGAATTCCGGTCTCCC
DNA 2: TGGTGGCTACGACGGGATT
B4: CGGAUGA (DNA:RNA)
RNA: GGGAGACCGGAAUUCAGAUUGUCCCGGAUGAUUAAAUCCCGUCGUAGCCACCA
DNA 1: CAATCTGAATTCCGGTCTCCC
DNA 2: TGGTGGCTACGACGGGATT
B5: GCGAACG (DNA:RNA)
RNA: B4 RNA with C25G, G26C, U29A, G30C, A31G
DNA 1: CAATCTGAATTCCGGTCTCCC
DNA 2: TGGTGGCTACGACGGGATT
B6: ACGUGGU (DNA:RNA)
RNA: B4 RNA with C25A, G26C, A28U, U29G, A31U
DNA 1: CAATCTGAATTCCGGTCTCCC
DNA 2: TGGTGGCTACGACGGGATT
B7: UCCUUCU (DNA:RNA)
RNA: B4 RNA with C25U, G26C, G27C, A28U, G30C, A31U
DNA 1: CAATCTGAATTCCGGTCTCCC
DNA 2: TGGTGGCTACGACGGGATT
B8: CAUGAAU (DNA:RNA)
RNA: B1 RNA with G25C, A27U, G29A, U30A
DNA 1: CAATCTGAATTCCGGTCTCCC
DNA 2: TGGTGGCTACGACGGGATT
B9: UGCACCA (DNA:RNA)
RNA: B4 RNA with C25U, G27C, U29C, G30C
DNA 1: CAATCTGAATTCCGGTCTCCC
DNA 2: TGGTGGCTACGACGGGATT
B10: UGAACGU (DNA:RNA)
RNA: B4 RNA with C25U, G27A, U29C, A31U
DNA 1: CAATCTGAATTCCGGTCTCCC
DNA 2: TGGTGGCTACGACGGGATT
B11: CACAACA (DNA:RNA)
RNA: B4 RNA with G26A, G27C, U29A, G30C
DNA 1: CAATCTGAATTCCGGTCTCCC
DNA 2: TGGTGGCTACGACGGGATT
B12: UAUUGAA (DNA:RNA)
RNA: B1 RNA with G25U, A27U, G28U, U30A, U31A
DNA 1: CAATCTGAATTCCGGTCTCCC
DNA 2: TGGTGGCTACGACGGGATT
B13: AGCGAAG (DNA:RNA)
RNA: B4 RNA with C25A, G27C, A28G, U29A, G30A, A31G
DNA 1: CAATCTGAATTCCGGTCTCCC
DNA 2: TGGTGGCTACGACGGGATT
B14: AUCUCAC (DNA:RNA)
RNA: GGGAGACCGGAAUUCAGAUUGUCCAUCUCACUUAAAUCCCGUCGUAGCCACCA
DNA 1: CAATCTGAATTCCGGTCTCCC
DNA 2: TGGTGGCTACGACGGGATT
B15: GGUGAGU (DNA:RNA)
RNA: B1 RNA with A26G, A27U, G29A, U30G
DNA 1: CAATCTGAATTCCGGTCTCCC
DNA 2: TGGTGGCTACGACGGGATT
B16: UCCGGCU (DNA:RNA)
RNA: B1 RNA with G25U, A26C, A27C, U30C
DNA 1: CAATCTGAATTCCGGTCTCCC
DNA 2: TGGTGGCTACGACGGGATT
B17: GUCUCUG (DNA:RNA)
RNA: B14 RNA with A25G, A30U, C31G
DNA 1: CAATCTGAATTCCGGTCTCCC
DNA 2: TGGTGGCTACGACGGGATT
B18: CGAUUCC (DNA:RNA)
RNA: B4 RNA with G27A, A28U, G30C, A31C
DNA 1: CAATCTGAATTCCGGTCTCCC
DNA 2: TGGTGGCTACGACGGGATT
B19: UCUAUUG (DNA:RNA)
RNA: B4 RNA with C25U, G26C, G27U, G30U, A31G
DNA 1: CAATCTGAATTCCGGTCTCCC
DNA 2: TGGTGGCTACGACGGGATT
B20: GUUUAUC (DNA:RNA)
RNA: B14 RNA with A25G, C27U, C29A, A30U
DNA 1: CAATCTGAATTCCGGTCTCCC
DNA 2: TGGTGGCTACGACGGGATT

Positions count from the first letter of the chain named. The list shows a part of the results.

The target of the test is T1, RBFOX1 RRM (Homo sapiens, UniProt Q9NWB1 109-208).
T1 sequence: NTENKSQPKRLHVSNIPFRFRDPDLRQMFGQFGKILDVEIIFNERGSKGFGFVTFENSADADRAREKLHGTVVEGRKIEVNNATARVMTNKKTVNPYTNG
Nature of the test: EMSA; HiTS-Eq, 1 nM pool, 10 min; buffer printed only for the single-RNA assays: 10 mM Tris pH 7.5, 150 mM NaCl, 3.4 mM EDTA, 0.001% NP-40, 30 C. Conditions: tags: His6 N-terminal (pET28a); label: 5' 32P. In short, it runs like this: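 Purified wild-type or mutant RbFox RRM at increasing concentrations was equilibrated with 1 nM of 5′-radiolabelled RNA carrying 7 randomized nucleotides for 10 min in 50 µL. Unbound RNA was separated by 8% native PAGE and sequenced. Relative association constants came from read-count changes of each RNA species compared with the control reaction, normalised to the cognate motif.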
Take B1: the binding signal was 0.0161 KA relative to UGCAUGU.
For B2, the binding signal is 0.00893 KA relative to UGCAUGU.
Consider B3, for which the binding signal was 0.00418 KA relative to UGCAUGU.
With B4 the figure was 0.0221 KA relative to UGCAUGU; with B5, 0.0184 KA relative to UGCAUGU.
Turning to B6, the binding signal is 0.0152 KA relative to UGCAUGU.
To B7 belongs 0.0106 KA relative to UGCAUGU; to B8, 0.00546 KA relative to UGCAUGU; to B9, 0.00925 KA relative to UGCAUGU.
To B10 belongs 0.0222 KA relative to UGCAUGU; to B11, 0.00114 KA relative to UGCAUGU.
With B12 the figure was 0.0163 KA relative to UGCAUGU; with B13, 0.0166 KA relative to UGCAUGU.
As for B14, the binding signal was 0.000969 KA relative to UGCAUGU.
With B15 the figure was 0.0101 KA relative to UGCAUGU.
With B16 the figure was 0.0112 KA relative to UGCAUGU; with B17, 0.023 KA relative to UGCAUGU.
As to B18, the binding signal was 0.00698 KA relative to UGCAUGU.
For B19, the binding signal is 0.0161 KA relative to UGCAUGU.
For the molecule B20, the binding signal is 0.0122 KA relative to UGCAUGU.
